# The list shows a part of the results.
# B1: LEA (Lycopersicon esculentum) (protein)
# chain: NEVFDVPMNETIGVESINASVGGYPRCGAQGDGGNCPSGMCCSVWGWCGKTYGYCAPQNCQKQCPAPYPEGRCGWQADGKSCPNGKCCSYGGWCGTTSDYCARQNCQKQCILPSPPPPPPPPPGFPRPECGLQKNGERCTKPGECCSIWGLCGATYKYCDPQHCQKQCSAPFPPGRCGWQADGRPCPTGQCCSFSGWCGTTSAHCTYPQCVSQCNDPRFPSSLNNRIQSFML
# What was measured:
# Experiment in all cases: glycan array binding signal (z-score within array); higher = stronger binding
# Details in all cases: glycan notation: IUPAC condensed, linker removed
# Fuc(a1-2)Gal = biological target: Fuc(a1-2)Gal
# Outline: (§1)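 Negative Z-scores can be read as non-binding. The Z-score is calculated within each array and then averaged across arrays of one protein sequence at different concentrations or buffers and across linkers. Arrays, 3228 in all, were curated from the Consortium for Functional Glycomics database and kept only where the protein sequence was available.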
# Fuc(a1-2)Gal(b1-3)GalNAc = biological target: Fuc(a1-2)Gal(b1-3)GalNAc
# Outline: as §1
# [1] = biological target: Fuc(a1-2)Gal(b1-3)GalNAc(b1-3)Gal
# Outline: as §1
# [2] = biological target: Fuc(a1-2)Gal(b1-3)GalNAc(b1-3)Gal(a1-4)Gal(b1-4)Glc
# Outline: as §1
# [3] = biological target: Fuc(a1-2)Gal(b1-3)GalNAc(b1-3)Gal(b1-4)Glc
# Outline: as §1
# [4] = biological target: Fuc(a1-2)Gal(b1-3)GalNAc(b1-4)[Neu5Ac(a2-3)]Gal(b1-4)Glc
# Outline: as §1
# [5] = biological target: Fuc(a1-2)Gal(b1-3)[Fuc(a1-4)]GlcNAc
# Outline: as §1
# Fuc(a1-2)Gal(b1-4)Glc = biological target: Fuc(a1-2)Gal(b1-4)Glc
# Outline: as §1
# Fuc(a1-2)Gal(b1-4)Glc6S = biological target: Fuc(a1-2)Gal(b1-4)Glc6S
# Outline: as §1
# Fuc(a1-2)Gal(b1-4)GlcNAc = biological target: Fuc(a1-2)Gal(b1-4)GlcNAc
# Outline: as §1
# [6] = biological target: Fuc(a1-2)Gal(b1-4)GlcNAc(b1-3)Gal(b1-4)GlcNAc
# Outline: as §1
# [7] = biological target: Fuc(a1-2)Gal(b1-4)GlcNAc(b1-3)Gal(b1-4)GlcNAc(b1-3)Gal(b1-4)GlcNAc
# Outline: as §1
# [8] = biological target: Fuc(a1-2)Gal(b1-4)GlcNAc6S
# Outline: as §1
# [9] = biological target: Fuc(a1-2)Gal(b1-4)[Fuc(a1-3)]GalNAc(b1-3)Gal(b1-4)[Fuc(a1-3)]GlcNAc
# Outline: as §1
# [10] = biological target: Fuc(a1-2)Gal(b1-4)[Fuc(a1-3)]GalNAc(b1-3)Gal(b1-4)[Fuc(a1-3)]GlcNAc(b1-3)Gal(b1-4)[Fuc(a1-3)]GalNAc
# Outline: as §1
# [11] = biological target: Fuc(a1-2)Gal(b1-4)[Fuc(a1-3)]GlcNAc
# Outline: as §1
# Fuc(a1-2)Gal6S(b1-4)Glc = biological target: Fuc(a1-2)Gal6S(b1-4)Glc
# Outline: as §1
# [12] = biological target: Fuc(a1-2)Gal6S(b1-4)Glc6S
# Outline: as §1
# [13] = biological target: Fuc(a1-2)Gal6S(b1-4)GlcNAc
# Outline: as §1
# Fuc(a1-2)GlcNAc = biological target: Fuc(a1-2)GlcNAc
# Outline: as §1
# Fuc(a1-2)[Gal(a1-3)]Gal = biological target: Fuc(a1-2)[Gal(a1-3)]Gal
# Outline: as §1
# [14] = biological target: Fuc(a1-2)[Gal(a1-3)]Gal(b1-3)GlcNAc
# Outline: as §1
# [15] = biological target: Fuc(a1-2)[Gal(a1-3)]Gal(b1-4)Glc
# Outline: as §1
# [16] = biological target: Fuc(a1-2)[Gal(a1-3)]Gal(b1-4)GlcNAc
# Outline: as §1
# [17] = biological target: Fuc(a1-2)[Gal(a1-3)]Gal(b1-4)[Fuc(a1-3)]GlcNAc
# Outline: as §1
# [18] = biological target: Fuc(a1-2)[Gal(a1-4)]Gal(b1-4)GalNAc
# Outline: as §1
# [19] = biological target: Fuc(a1-2)[GalNAc(a1-3)]Gal
# Outline: as §1
# [20] = biological target: Fuc(a1-2)[GalNAc(a1-3)]Gal(b1-3)GlcNAc
# Outline: as §1
# [21] = biological target: Fuc(a1-2)[GalNAc(a1-3)]Gal(b1-4)Glc
# Outline: as §1
# [22] = biological target: Fuc(a1-2)[GalNAc(a1-3)]Gal(b1-4)GlcNAc
# Outline: as §1
# [23] = biological target: Fuc(a1-2)[GalNAc(a1-3)]Gal(b1-4)[Fuc(a1-3)]GlcNAc
# Outline: as §1
# [24] = biological target: Fuc(a1-2)[GalNAc(a1-4)]Gal(b1-4)GlcNAc
# Outline: as §1
# Fuc(a1-3)GlcNAc = biological target: Fuc(a1-3)GlcNAc
# Outline: as §1
# [25] = biological target: Fuc(a1-3)[Gal(b1-4)]Glc6S
# Outline: as §1
# [26] = biological target: Fuc(a1-3)[Gal(b1-4)]GlcNAc
# Outline: as §1
# [27] = biological target: Fuc(a1-3)[Gal(b1-4)]GlcNAc(b1-3)Gal(b1-3)[Fuc(a1-4)]GlcNAc
# Outline: as §1
# [28] = biological target: Fuc(a1-3)[Gal(b1-4)]GlcNAc(b1-4)Gal(b1-4)[Fuc(a1-3)]GlcNAc
# Outline: as §1
# [29] = biological target: Fuc(a1-3)[Gal(b1-4)]GlcNAc(b1-4)Gal(b1-4)[Fuc(a1-3)]GlcNAc(b1-4)Gal(b1-4)[Fuc(a1-3)]GlcNAc
# Outline: as §1
# [30] = biological target: Fuc(a1-3)[Gal(b1-4)]GlcNAc6S
# Outline: as §1
# [31] = biological target: Fuc(a1-3)[Gal3S(b1-4)]Glc
# Outline: as §1
# [32] = biological target: Fuc(a1-3)[Gal3S(b1-4)]Glc6S
# Outline: as §1
# [33] = biological target: Fuc(a1-3)[Gal3S(b1-4)]GlcNAc
# Outline: as §1
# [34] = biological target: Fuc(a1-3)[Gal3S(b1-4)]GlcNAc6S
# Outline: as §1
# [35] = biological target: Fuc(a1-3)[GalNAc(b1-4)]Gal(b1-4)GlcNAc
# Outline: as §1
# Fuc(a1-4)GlcNAc = biological target: Fuc(a1-4)GlcNAc
# Outline: as §1
# Fuc(b1-3)GlcNAc = biological target: Fuc(b1-3)GlcNAc
# Outline: as §1
# Gal(a1-2)Gal = biological target: Gal(a1-2)Gal
# Outline: as §1
# Gal(a1-3)Gal = biological target: Gal(a1-3)Gal
# Outline: as §1
# Gal(a1-3)Gal(b1-3)Glc = biological target: Gal(a1-3)Gal(b1-3)Glc
# Outline: as §1
# Gal(a1-3)Gal(b1-3)GlcNAc = biological target: Gal(a1-3)Gal(b1-3)GlcNAc
# Outline: as §1
# Gal(a1-3)Gal(b1-4)GlcNAc = biological target: Gal(a1-3)Gal(b1-4)GlcNAc
# Outline: as §1
# [36] = biological target: Gal(a1-3)Gal(b1-4)[Fuc(a1-3)]GalNAc
# Outline: as §1
# Gal(a1-3)GlcNAc = biological target: Gal(a1-3)GlcNAc
# Outline: as §1
# [37] = biological target: Gal(a1-3)[Gal(a1-4)]Gal(b1-4)GlcNAc
# Outline: as §1
# Gal(a1-4)Gal(b1-4)Gal = biological target: Gal(a1-4)Gal(b1-4)Gal
# Outline: as §1
# Gal(a1-4)Gal(b1-4)GalNAc = biological target: Gal(a1-4)Gal(b1-4)GalNAc
# Outline: as §1
# Gal(a1-4)GlcNAc = biological target: Gal(a1-4)GlcNAc
# Outline: as §1
# Gal(a1-6)Glc = biological target: Gal(a1-6)Glc
# Outline: as §1
# Gal(b1-2)Gal = biological target: Gal(b1-2)Gal
# Outline: as §1
# Gal(b1-3)Gal = biological target: Gal(b1-3)Gal
# Outline: as §1
binder,measurement,setting,value
B1,glycan array binding signal (z-score),Fuc(a1-2)Gal,-0.538
same,glycan array binding signal (z-score),Fuc(a1-2)Gal(b1-3)GalNAc,-0.556
same,glycan array binding signal (z-score),[1],-0.547
same,glycan array binding signal (z-score),[2],-0.539
same,glycan array binding signal (z-score),[3],-0.549
same,glycan array binding signal (z-score),[4],-0.531
same,glycan array binding signal (z-score),[5],-0.562
same,glycan array binding signal (z-score),Fuc(a1-2)Gal(b1-4)Glc,-0.541
same,glycan array binding signal (z-score),Fuc(a1-2)Gal(b1-4)Glc6S,-0.54
same,glycan array binding signal (z-score),Fuc(a1-2)Gal(b1-4)GlcNAc,1.11
same,glycan array binding signal (z-score),[6],1.72
same,glycan array binding signal (z-score),[7],2.27
same,glycan array binding signal (z-score),[8],1.4
same,glycan array binding signal (z-score),[9],-0.557
same,glycan array binding signal (z-score),[10],-0.543
same,glycan array binding signal (z-score),[11],-0.555
same,glycan array binding signal (z-score),Fuc(a1-2)Gal6S(b1-4)Glc,-0.548
same,glycan array binding signal (z-score),[12],-0.512
same,glycan array binding signal (z-score),[13],-0.55
same,glycan array binding signal (z-score),Fuc(a1-2)GlcNAc,-0.537
same,glycan array binding signal (z-score),Fuc(a1-2)[Gal(a1-3)]Gal,-0.548
same,glycan array binding signal (z-score),[14],-0.552
same,glycan array binding signal (z-score),[15],-0.539
same,glycan array binding signal (z-score),[16],2.51
same,glycan array binding signal (z-score),[17],-0.548
same,glycan array binding signal (z-score),[18],2.53
same,glycan array binding signal (z-score),[19],-0.561
same,glycan array binding signal (z-score),[20],-0.547
same,glycan array binding signal (z-score),[21],-0.564
same,glycan array binding signal (z-score),[22],2.5
same,glycan array binding signal (z-score),[23],-0.546
same,glycan array binding signal (z-score),[24],2.62
same,glycan array binding signal (z-score),Fuc(a1-3)GlcNAc,-0.545
same,glycan array binding signal (z-score),[25],-0.535
same,glycan array binding signal (z-score),[26],-0.562
same,glycan array binding signal (z-score),[27],-0.561
same,glycan array binding signal (z-score),[28],-0.522
same,glycan array binding signal (z-score),[29],-0.541
same,glycan array binding signal (z-score),[30],-0.39
same,glycan array binding signal (z-score),[31],-0.554
same,glycan array binding signal (z-score),[32],-0.541
same,glycan array binding signal (z-score),[33],-0.505
same,glycan array binding signal (z-score),[34],0.546
same,glycan array binding signal (z-score),[35],-0.537
same,glycan array binding signal (z-score),Fuc(a1-4)GlcNAc,-0.552
same,glycan array binding signal (z-score),Fuc(b1-3)GlcNAc,-0.538
same,glycan array binding signal (z-score),Gal(a1-2)Gal,-0.553
same,glycan array binding signal (z-score),Gal(a1-3)Gal,-0.553
same,glycan array binding signal (z-score),Gal(a1-3)Gal(b1-3)Glc,-0.529
same,glycan array binding signal (z-score),Gal(a1-3)Gal(b1-3)GlcNAc,-0.52
same,glycan array binding signal (z-score),Gal(a1-3)Gal(b1-4)GlcNAc,2.22
same,glycan array binding signal (z-score),[36],-0.559
same,glycan array binding signal (z-score),Gal(a1-3)GlcNAc,-0.543
same,glycan array binding signal (z-score),[37],1.96
same,glycan array binding signal (z-score),Gal(a1-4)Gal(b1-4)Gal,-0.546
same,glycan array binding signal (z-score),Gal(a1-4)Gal(b1-4)GalNAc,2.17
same,glycan array binding signal (z-score),Gal(a1-4)GlcNAc,-0.545
same,glycan array binding signal (z-score),Gal(a1-6)Glc,-0.541
same,glycan array binding signal (z-score),Gal(b1-2)Gal,-0.534
same,glycan array binding signal (z-score),Gal(b1-3)Gal,-0.537
